# The other results are listed elsewhere or left out.
# T1: UNK ZnF1-3 (human, UniProt Q9C0B0 31-174)
# T1 sequence: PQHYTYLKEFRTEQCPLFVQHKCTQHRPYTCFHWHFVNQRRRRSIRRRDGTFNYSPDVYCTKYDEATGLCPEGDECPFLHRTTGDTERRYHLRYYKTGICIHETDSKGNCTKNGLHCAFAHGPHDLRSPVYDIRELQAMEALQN
# B1: chr10:112654219:112654220:+_ENSG00000150593_ENST00000280154|hu_hu|FALSE|FALSE (ssRNA)
# RNA: GGGAGUUCUACAGUCCGACGAUCCCAAAGGGACUUUAAUAAAUCCAAAAUCAUCUUAAAUGUACUUUCUCCAGUUGACUCUAAAACCAUUAUAAUAGCUUCAUAUACAAGCUCAUGGUGAAAAUGAGGUACUUCCAGUUCCUUCAACAGAGGAUUGAGCAUCA
# B2: chr3:176740097:176740098:-_ENSG00000177565_ENST00000430069|hu_mus|hu_hu_hu_mus_True|28_78 (ssRNA)
# RNA: GGGAGUUCUACAGUCCGACGAUCUGUUUUGUAUACCACAAAAGGAGGCACUUUCAGUAUCUGUAAAAGGUGUUUAGUCCUAAAACAUACUCACCUAGAGGAUAACUAAAACAGAAUAUCUGUUACACUCUAAGACCUACUCCACAACAGAGGAUUGAGCAUCA
# B3: chr7:151622947:151622948:-_ENSMUSG00000031078_ENSMUST00000033407|mus_mus|motif|central (ssRNA)
# RNA: GGGAGUUCUACAGUCCGACGAUCGAAGAGCCCGUAUCUGCCCUUGCACACCCCACGCCACCAGCCAUCGUCAAUCAUUUCGGUGUUGGUGAUGAUGUCAUCAGGGUCAAAGGAGAUCUCAUCAUCGCCAGCAGCCUGGUAGUCCAACAGAGGAUUGAGCAUCA
# B4: 151047108_151049291_758_3pUTR_ENSG00000113140_ENST00000231061|human|control|control (ssRNA)
# RNA: GGGAGUUCUACAGUCCGACGAUCCCGCAUGCGCAGGGGGAAUUCGGUCAGCUCAGAGUCCAGGCAAGGGGGGAUGUAUUUGCAAGGCCCGAUGUAGUCCAGGUGGAGCUUGUGGCCCUUCUUGGUGCCCUCCAGGGUGCACUUCAACAGAGGAUUGAGCAUCA
# B5: chr2:29787112:29787113:+_ENSMUSG00000026790_ENSMUST00000113756|mus_hu|FALSE|FALSE (ssRNA)
# RNA: GGGAGUUCUACAGUCCGACGAUCCCAAAUGGACACAAGCCCUCGAGGGUCUAUUGUGAAGUGCUUGGGGGCAAGUGGCCUCAAAGAAACUUGGGAGUGAGAGGUUUGCACUGAGCUUGGGAAGGGAGCCUUGGGAAAACACCACAACAGAGGAUUGAGCAUCA
# B6: chr4:95690885:95690886:+_ENSMUSG00000028572_ENSMUST00000156910|mus_mus|mus_mus_mus_hu_False|38_88 (ssRNA)
# RNA: GGGAGUUCUACAGUCCGACGAUCUUUAGAAAAUGUUAAAUACCAUGAGCAUGCUAAUUCAAAGGCUUAUUUUAUUUUACCAGAAGUCACAGGCAAGCAGACACCAUAAGAAUAUAUGAAAAUGAAACUCAACAAUAUAACUGUCAACAGAGGAUUGAGCAUCA
# B7: chr2:216981417:216981418:+_ENSG00000079246_ENST00000392132|hu_hu|hu_hu_hu_mus_True|88_108 (ssRNA)
# RNA: GGGAGUUCUACAGUCCGACGAUCCUGAUACUGAUCCUUGCCAGCAAGGGGAUUGUCAGUGCCAUCUGUGCCAUAGAGGACUAACGCAAUCUCAUCUUUGCUCUCCGAAAAUACCUGUCGUUGGACAAACAUAGUCAUCACUUUCAACAGAGGAUUGAGCAUCA
# B8: 42751629_42751749_175_5pUTR_ENSG00000120925_ENST00000527424|human|control|control (ssRNA)
# RNA: GGGAGUUCUACAGUCCGACGAUCUCCACCGCGAAGGAACUACCUCGCCAGUUCCCGGCGACAGAGGACAGAUUAUUUCCAGGACCGCUCCCGCCACCCCUCCCGGGCAACCCACUAGACGUCCCCUUUCUAAUUUGGAGUGCGCAACAGAGGAUUGAGCAUCA
# B9: 216262523_216264051_3602_CDS_ENSG00000115414_ENST00000323926|human|control|control (ssRNA)
# RNA: GGGAGUUCUACAGUCCGACGAUCAGUCACUUCUCGUGGUGCCUCUCCUCCCUGGCUUGGUCGUACACCCAGCUUAAAACCAAUUCUUGGAGCAGGCGUCCAUGUGAUCACAAUGGUGGUCUCAGUCACCUCGGUGUUGUAAGGCAACAGAGGAUUGAGCAUCA
# B10: chr4:76721835:76721836:+_ENSG00000138768_ENST00000264904|hu_mus|hu_hu_hu_mus_True|78_98 (ssRNA)
# RNA: GGGAGUUCUACAGUCCGACGAUCGUUUGGCUGGGGUUCUGAGAUGCCUCUGGAAUAAACUCAUGUUUUGCUAAUAAAUCCUAGUUUCUCUAUGAAAUUCUCUUUGCCAAUCCUCUUCUCUAUUAGUUGCUUUAGUUUCUCUUUCAACAGAGGAUUGAGCAUCA
# B11: chr7:75932113:75932114:+_ENSG00000106211_ENST00000248553|hu_hu|hu_hu_hu_mus_False|48_108 (ssRNA)
# RNA: GGGAGUUCUACAGUCCGACGAUCCUGCGACCACUCCUCGGGCAACCGGGGCACCCCGAAAGCUUGAUCGAAGAGGCGGCUGUGUGCGUACCAGUCGUCCCGGAAUGGUUCCCAGCUCGGGCUCCGCAGCAGCGAGAAGGGCACCAACAGAGGAUUGAGCAUCA
# B12: chr7:151048522:151048523:+_ENSG00000013374_ENST00000566856|hu_mus|hu_hu_hu_mus_True|1_98 (ssRNA)
# RNA: GGGAGUUCUACAGUCCGACGAUCCUGUUUCUUAUUUAUGACAAUUUUGAUGUAAUUUUCUUGAAAUCCGAAAGUUUCAGCUAUUUGACACCUCAGGUCUCUACCAGUGACAUGCAAGCGGGUCUCCAACAAGCUUUUCCUAUCCAACAGAGGAUUGAGCAUCA
# B13: 142888011_142888131_7155_CDS_ENSMUSG00000031004_ENSMUST00000033310|mouse|control|control (ssRNA)
# RNA: GGGAGUUCUACAGUCCGACGAUCCUUAUUGAGACCUGUCUUGGAAAGUCUCUUUGUGCUUGCCCGGGUUCUGACUGGUUCUGCUUGUGAAGAUUCCAAAGAUAUCUUUGCACUUUCUUCAACACUCACAGGGUUACUGGCACCCAACAGAGGAUUGAGCAUCA
# B14: chr5:40767622:40767623:-_ENSG00000132356_ENST00000397128|hu_mus|hu_hu_hu_mus_False|28_108 (ssRNA)
# RNA: GGGAGUUCUACAGUCCGACGAUCAUCUUUGAUUGUGGCCCUCUUCAUGGGAUCCACCUGCAGCAUAUGUUUCAAAAGGCUGAUUACUGAAGGGUUUAAGUACUGAGGGGUAUAGAAGAUCCCAUCACAUAUCUUCUUAAAAAGCAACAGAGGAUUGAGCAUCA
# B15: chr4:128860887:128860888:-_ENSMUSG00000040928_ENSMUST00000106061|mus_hu|FALSE|FALSE (ssRNA)
# RNA: GGGAGUUCUACAGUCCGACGAUCGAGCACAUCAUUUUGUGUGGAGCUGCUGGAGCAAUCUCUGCCUUUGCCACGAGACCAAAUGGAAAAAGGUUUCAGUUCCUGCUAGCUGUUCCUUUCAGGAGACUUGUCAAAAUGAUUGACCAACAGAGGAUUGAGCAUCA
# B16: chr2:65331917:65331918:-_ENSG00000138069_ENST00000409751|hu_hu|motif|central (ssRNA)
# RNA: GGGAGUUCUACAGUCCGACGAUCAUAACUGGAGGUGAUUGUUCGAAAUCUUUCCUGGCCUGCUGUGUCCCAUGCAAACCGGAGAAGAAGGCAAGACUUUCCAACCCCUGAGUCGCCAAUCAGAAGUAACUUGAAUAAAUAAUCCAACAGAGGAUUGAGCAUCA
# B17: chr8:95500983:95500984:-_ENSG00000164944_ENST00000437199|hu_hu|hu_hu_hu_mus_True|28_28 (ssRNA)
# RNA: GGGAGUUCUACAGUCCGACGAUCAGAACACAUCUAUCGAGUAAAGGACCGUACAUGACGGCCUCUACCACUGCCUCCACUAACAAACUUUCCUCUCGAGCCUCCACCUGCCGCUAUUGUACUAGCCCAGGACGGUCCCAGGCCCAACAGAGGAUUGAGCAUCA
# B18: chr12:48362563:48362564:+_ENSG00000134291_ENST00000256686|hu_hu|hu_hu_hu_mus_False|48_58 (ssRNA)
# RNA: GGGAGUUCUACAGUCCGACGAUCUCCGUCAAGCCCUUCGAUAGACCCUUGCGGGGGAAACUGUAAUCACUUUGUAUUUCUAAAAAAAAAAAAAGCCAAAAACUUUCCAAAAAGCGGGGGUGGGGUGAGGCGGGAGGGGGAGGUCAACAGAGGAUUGAGCAUCA
# B19: chr2:47387770:47387771:-_ENSG00000143933_ENST00000272298|hu_mus|hu_hu_hu_mus_True|28_108 (ssRNA)
# RNA: GGGAGUUCUACAGUCCGACGAUCAAGGUUUUAGGACAAUGACAGUAAGAUAAGGGAAGAAAACAUGGAGGAAUGAAGUCCUAAUUACUAUACAUGCAUAUUUUUUGGACAGUAGGGGGGGGAACCUUUUACAGAUAAGUUACACAACAGAGGAUUGAGCAUCA
# B20: chr1:82408827:82408828:+_ENSG00000117114_ENST00000319517|hu_hu|motif|central (ssRNA)
# RNA: GGGAGUUCUACAGUCCGACGAUCAUCUACUCGAUUUGGAAGUUUAUAUGUUGUUGUUUGGCGACUAUUUUGGAAAUCUUCGGAAGAAGCAUAUUCUAUUAAAGUAUCGGUACGAUAGGGAGUCCAGGGCAUGAAAUAAAUUUUCAACAGAGGAUUGAGCAUCA
# B21: chr18:74380996:74380997:+_ENSMUSG00000024560_ENSMUST00000025444|mus_mus|motif|central (ssRNA)
# RNA: GGGAGUUCUACAGUCCGACGAUCGCAGAGACCCUUUGAUAAGGGCAAACGGAAGCCAAAACGUGGAUGGUGAGGAUCAAACGGAGGGCAGCAGAAGAAACAGAUGAAUGGAGGAACGGACAGCUGGCAAUGCAGGGCCUCUCCCAACAGAGGAUUGAGCAUCA
# B22: chr14:94519448:94519449:-_ENSG00000089737_ENST00000330836|hu_hu|FALSE|FALSE (ssRNA)
# RNA: GGGAGUUCUACAGUCCGACGAUCAGAGUUGUGCAGGCAAGCCUGGAAGUUCCGAUACUCAGAUUUCUCAAUCUGUCGAGCUAAACGGAUUCGCUCCUUGACCACAUCCAUGUAUUUUGUCUGCACGGGGAACAGUGGGAUAUCCAACAGAGGAUUGAGCAUCA
# Biological target: T1, UNK ZnF1-3
# Test: nsRBNS (natural sequence RNA bind-n-seq); RBNS binding buffer (assumed for nsRBNS): 25 mM Tris pH 7.5, 150 mM KCl, 3 mM MgCl2, 0.01% Triton X-100, 500 ug/ml BSA, 20 U/ml SUPERase-In, 4 C; UNK is unkempt and MSI1 is Musashi-1; names of the RNAs are library labels; protein concentration not given here; high values mean tight binding
row,Binder,binding signal [enrichment R]
1,B1,1.04
2,B2,0.739
3,B3,1.13
4,B4,0.962
5,B5,2.06
6,B6,2.38
7,B7,1.11
8,B8,1.33
9,B9,0.919
10,B10,0.482
11,B11,0.664
12,B12,0.863
13,B13,0.546
14,B14,0.978
15,B15,1.4
16,B16,1.24
17,B17,1.08
18,B18,2.29
19,B19,1.71
20,B20,1.52
21,B21,1.97
22,B22,0.512
